# According to paper PMC4336329 (PLoS ONE, 2015):
# Hit rate of the full screen: of about 310,000 compounds, about 14,000 (4.5%) showed an effect of 50% or more. The effect is printed as a negative number. This is one part of the list.
# Molecular target: human ether-à-go-go-related gene (hERG) potassium channel (human, UniProt Q12809)
# Assay: primary screen, population patch clamp on CHO cells stably expressing hERG
# 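Also: peak tail current of the secondary pulse compared with the same well before compound.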
# human ether-à-go-go-related gene (hERG) potassium channel, sequence (Q12809 whole entry, looked up): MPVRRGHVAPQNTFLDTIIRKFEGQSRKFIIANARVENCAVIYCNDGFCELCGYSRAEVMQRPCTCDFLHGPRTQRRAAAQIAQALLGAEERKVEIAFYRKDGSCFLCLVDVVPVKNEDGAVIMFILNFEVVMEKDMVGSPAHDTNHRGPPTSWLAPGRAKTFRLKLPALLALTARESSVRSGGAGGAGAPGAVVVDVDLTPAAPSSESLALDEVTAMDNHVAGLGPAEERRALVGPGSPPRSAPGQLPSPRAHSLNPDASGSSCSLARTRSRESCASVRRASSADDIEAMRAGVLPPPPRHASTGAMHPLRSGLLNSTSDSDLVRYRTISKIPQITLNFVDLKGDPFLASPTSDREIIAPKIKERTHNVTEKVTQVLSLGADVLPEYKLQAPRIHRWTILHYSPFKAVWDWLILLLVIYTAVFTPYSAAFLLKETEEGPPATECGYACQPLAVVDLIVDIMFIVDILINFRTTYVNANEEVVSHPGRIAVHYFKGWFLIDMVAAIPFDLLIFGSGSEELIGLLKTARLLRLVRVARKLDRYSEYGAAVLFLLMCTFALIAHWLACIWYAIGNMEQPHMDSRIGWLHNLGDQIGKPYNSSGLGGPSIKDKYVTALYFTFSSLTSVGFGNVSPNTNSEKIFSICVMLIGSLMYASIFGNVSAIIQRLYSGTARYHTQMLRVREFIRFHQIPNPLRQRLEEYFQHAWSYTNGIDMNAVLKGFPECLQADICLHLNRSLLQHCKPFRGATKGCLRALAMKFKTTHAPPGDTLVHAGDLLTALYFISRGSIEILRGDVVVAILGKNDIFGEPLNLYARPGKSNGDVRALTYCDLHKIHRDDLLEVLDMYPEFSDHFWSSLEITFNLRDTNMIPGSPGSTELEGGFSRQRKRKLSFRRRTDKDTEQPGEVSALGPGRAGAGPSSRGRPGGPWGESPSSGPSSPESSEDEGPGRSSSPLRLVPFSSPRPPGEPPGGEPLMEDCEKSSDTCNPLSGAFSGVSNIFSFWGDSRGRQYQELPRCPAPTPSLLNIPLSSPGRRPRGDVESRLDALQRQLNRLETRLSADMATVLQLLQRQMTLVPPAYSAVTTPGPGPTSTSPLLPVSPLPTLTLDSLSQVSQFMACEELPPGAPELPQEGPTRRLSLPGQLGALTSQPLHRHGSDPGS
row,Compound,"hERG current change (%, negative = inhibition) at 10uM [%]"
1,Cc1sc2ncnc(N3CCC(C(=O)NNC(=O)COc4ccc(Br)cc4)CC3)c2c1C,-68.5
2,COC(=O)c1ccc(CN2CCC(Oc3cccc(C(=O)N4CCOCC4)c3)CC2)cc1,-22.7
3,COC(=O)c1cc2occc2n1CC(=O)Nc1cc(OC)cc(OC)c1,-10.6
4,Cc1ccc2nc(CCc3nc4ccc(C)cc4[nH]3)[nH]c2c1.Cl,-33.4
5,C=C(C)COc1ccc(-c2ncnc(C(F)(F)F)c2-c2ccccc2)c(O)c1,8.71
6,N#CCCC(CCC#N)C1=NCCc2ccccc21,27.8
7,O=C(Cc1cccc(F)c1F)NC1CCCN(Cc2ccc(Cl)cc2)C1 (stereo not shown),-21.7
8,COc1ccc(NS(=O)(=O)c2ccc3c(c2)N(C(C)=O)CCO3)c(OC)c1,3.3
9,O=C(NCc1ccncc1)c1cc(S(=O)(=O)N2CCOCC2)c(Cl)cc1Cl,-13.3
10,O=C(NCC(c1ccco1)N1CCc2ccccc21)c1ccccc1 (stereo not shown),-3.78
11,CC1(c2ccccn2)Nc2ccccc2-c2nc3ccccc3n21 (stereo not shown),-4.59
12,CCc1ccc(CN2CCC(C(=O)Nc3ccc(Oc4ccccc4)nc3)CC2)o1,-58.9
13,CCCCNc1nnc(Cc2ccc(Cl)cc2)c(=O)[nH]1,11.4
14,C=CCc1cc(OC)ccc1OCCON1C(=O)CCC1=O,-1.77
15,N#Cc1nc(-c2ccco2)oc1N1CCCC1,-11.1
16,O=C(COc1ccc(S(=O)(=O)N2CCCC2)cc1)N1CCCC1,1.33
17,CCOC(=O)c1c(C=O)c2sc(C)cc2n1C,5.67
18,O=C(NCc1ccccc1)C1CCN(S(=O)(=O)c2ccc(Cl)cc2)CC1,3.16
19,Cc1ccc(CNC(=O)CCn2cc(-c3ccc(C)cc3)nc2-c2ccncc2)cc1,-45.1
20,c1ccc2[nH]c(-c3ccc4c(c3)OCO4)nc2c1,2.53
21,CCOC(=O)c1c(-c2ccccc2)csc1NC(=O)C(C)NCc1ccco1.O=C(O)C(=O)O (stereo not shown),-4.22
22,COc1cccc(NC(=O)Cc2c(O)c3ccccc3[nH]c2=O)c1,10.8

row,Compound,"hERG current change (%, negative = inhibition) at 10uM [%]"
1,COc1ccc(C(c2nnnn2CCc2ccccc2)N2CCN(C3CCCC3)CC2)cc1.Cl (stereo not shown),-68
2,COc1cc2cc(C(=O)N3CCOCC3)cc(-c3ccc(C)cc3)c2cc1OC,-8.61
3,CCn1c(SCc2ccccc2)nc2c1c(=O)[nH]c(=O)n2C,-2.9
4,COc1ccc(-c2nonc2NC(=O)c2ccco2)cc1OC,10.4
5,O=C(N/N=C/C(Br)=C/c1ccccc1)c1ccccc1F,-38.5
6,CCc1ccc(C2c3[nH]c4ccccc4c3CCN2C(=O)c2cc(C)nn2C)cc1 (stereo not shown),-2.58
7,Cc1ccccc1OCCSc1nnc(-c2ccncc2)n1C,-30.8
8,COc1cccc(/C=N/n2c(-c3ccco3)nc3ccccc3c2=O)c1OC,-3.99
9,CCCCn1c(N)c(N(CCOC)C(=O)c2cccc(S(=O)(=O)N(C)c3ccccc3)c2)c(=O)[nH]c1=O,6.58
10,O=C(C1CCN(CCCc2ccccc2)CC1)N(CCc1ccccc1)Cc1ccccc1.O=C(O)C(=O)O,-75
11,Cc1ccc(/C=C(\NC(=O)c2ccccc2)C(=O)OCc2ccccc2)cc1,10.3
12,[N-]=[N+]=CC(=O)CCCN1C(=O)c2ccccc2C1=O,7.83
13,CC(Oc1ccc(F)cc1)C(=O)Nc1nc(-c2ccccn2)cs1 (stereo not shown),-76.3
14,COCC(=O)Nc1cc(C)c2c(=O)oc3ccccc3c2n1,4.33
15,COc1cc(C2C(C#N)=C(N)Oc3n[nH]c(-c4ccncc4)c32)cc(OC)c1OC (stereo not shown),0.28
16,O=C(Cc1ccccc1)Nc1ccccc1C(=O)N1CCCCC1,13.7
17,COc1cc(/C=C/C(=O)O)cc(S(=O)(=O)Nc2ccc3nc(C)sc3c2)c1OC,26.5
18,CCc1ccc(CCC(=O)Nc2ccc(Br)cc2)o1,9.3
19,COc1ccc(CNC(=O)C(C)N(C)Cc2cccc(F)c2)cc1 (stereo not shown),-17.9
20,CCCc1ccc(OCc2ccc(C(=O)O)o2)c(OC)c1,8.51
21,Cc1ccc(C(=O)NNC(=S)NCC2CCCO2)cc1[N+](=O)[O-] (stereo not shown),-40.6
